Measurements taken from PubChem BioAssay AID1347417 (National Center for Advancing Translational Sciences (NCATS), 2020).
The whole screen tested about 120,000 compounds, of which about 5,300 (4.4%) were called active. The shares of active, inactive and inconclusive entries below differ from those in the screen. Calls follow the shape of the dose curve; as a rule, active = well fitted inhibition curve with a large enough effect; inconclusive = small, poorly fitted or top-dose-only effect; inactive = no such curve, though single readings can be large or run the other way. Potencies beside an inconclusive call are fits to weak or partial responses and may not hold up.

Assay: qHTS Primary assay for Inhibitors of Plasmodium falciparum Dd2 growth in vitro; also: nearly all actives have a fitted effect of over 65% in size;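 as to activity, negative = inhibition: plate controls were DMSO vehicle for no effect and reference drug for full effect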
Conditions: P. falciparum Dd2 growth, SYBR Green, 72 h; activity, negative = inhibition: at 28.9 µM (top of the series) unless noted; series mostly up to 28.9 µM
How it was run: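 Readout: SYBR Green fluorescence, 485 nm excitation, 535 nm emission, after ~16 h lysis at 37C. Before that, Dd2-infected red cells (2.5% hematocrit) grew 72 h with compound, 29 uM top final concentration.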
Potency is read from the fitted curve at half-maximal effect; tags tell the direction and shape of the fitted curve.

Row | SMILES | Potency | outcome | activity, negative = inhibition
1 | O=C(CN1C(=O)COc2ccc(S(=O)(=O)N3CCCCCC3)cc21)N1CCN(c2cccc(C(F)(F)F)c2)CC1 | inconclusive: 15.8 µM [inhibitor, single point] |  | 
2 | COc1ccc2c(CNCCc3cccs3)c(C(=O)O)n(Cc3ccccc3C)c2c1 | inconclusive: 11.2 µM [inhibitor, single point] |  | 
3 | CCn1cc(CN(C)C(=O)CCC[C@@H]2[C@H]3CCCN4CCC[C@@H](CN2C)[C@@H]34)c(C)n1 |  | inactive | 
4 | O=C(c1ccccc1F)N1CCCC2(CC(c3cccc(C(F)(F)F)c3)=NO2)C1 (configuration not stated) | inconclusive: 17.8 µM [inhibitor, single point] |  | 
5 | COc1ccc(-c2noc(N3CCC(C(=O)N(C)c4cc(Cl)ccc4OC)CC3)n2)cc1 | active: 10 µM |  | 
6 | CCOc1ccc(C(=O)N2CCCC3(C2)NC(=O)N(Cc2cc(C)ccc2C)C3=O)cc1 (configuration not stated) | inconclusive: 17.8 µM [inhibitor, single point] |  | 
7 | CCc1nc2c(c(-c3ccc(Cl)cc3)n1)CCN(Cc1ccc(N(C)C)cc1)CC2 | inconclusive: 10 µM [inhibitor, single point] |  | 
8 | COc1ccc(Cl)cc1C(=O)N1C[C@@H](CO)[C@H](c2ccccn2)C1 |  |  | inactive: 22.1%
9 | O=C(CCN1CCCC1=O)NC1CCCN(CCCc2ccccc2)C1 (configuration not stated) |  | inactive | 
10 | C=Cc1cccc(CN2CCCC3(CCNC3)C2)c1 (configuration not stated) | active: 10 µM |  | 
11 | Cc1c(C(=O)N2CCCC2)oc2c1-c1nn(CC(=O)NC(C)c3ccccc3)cc1CC2 (configuration not stated) | inconclusive: 11.2 µM [inhibitor, single point] |  | 
12 | Cc1ccc(NC(=O)Cn2c(N3CCCCC3)nc(C)c(C)c2=O)c(Cl)c1 |  | inactive | 
13 | CCC(C(=O)Nc1cc(OC)ccc1OC)n1c(C)c2cnn(-c3ccccc3)c(=O)c2c1C (configuration not stated) | inconclusive: 7.08 µM [inhibitor, partial curve] |  | 
14 | Cc1cc(F)ccc1NC(=O)c1ccc2nc(Cc3ccccc3)oc2c1 |  |  | inactive: -20.8%
15 | Cc1ccc(S(=O)(=O)NCCc2nnc3ccc(SCc4ccc(F)cc4)nn23)cc1 | inconclusive: 11.2 µM [inhibitor, single point] |  | 
16 | COCCn1ncc(N2CCCC(CC(=O)N3CC=C(c4ccccc4)CC3)C2)cc1=O (configuration not stated) | inconclusive: 17.8 µM [inhibitor, single point] |  | 
17 | Cc1noc(CC2CCOC3(CCN(C(=O)c4cc(-c5ccc(F)cc5)n[nH]4)CC3)C2)n1 (configuration not stated) | inconclusive: 10 µM [inhibitor, partial curve, poor fit] |  | 
18 | O=C(c1cccs1)c1cn(CCOc2ccccc2Cl)c2ccccc12 | active: 3.16 µM |  | 
19 | CCn1cc(S(=O)(=O)N2CCC(Oc3ccc(-c4noc(COC)n4)cc3)C2)cn1 (configuration not stated) |  |  | inactive: 64.3% [at 5.79 µM]
20 | CN(C)CC1(O)CCC2(CCN(C(=O)c3nccc4ccccc34)CC2)CC1 | inconclusive: 0.631 µM [inhibitor, full curve, poor fit] |  | 
21 | Cc1cc(=O)n(CC(=O)Nc2ccc(Br)cc2F)c(N2CCc3ccccc3C2)n1 | inconclusive: 10 µM [inhibitor, single point] |  | 
22 | O=C1CCN(CC2CCCCC2)CCCC(c2nc(-c3cccnc3)no2)CCN1 (configuration not stated) | inconclusive: 3.55 µM [inhibitor, single point] |  | 
23 | COc1cccc([S+](=O)([O-])N2CCC3(CC2)C(=NC2CCCC2)NC(=O)N3c2cccnc2)c1 |  |  | inactive: 43.8%

Row | SMILES | Potency | outcome | activity, negative = inhibition
24 | C=C[C@H]1CN2CC[C@H]1C[C@@H]2CNCc1cccc(Cl)c1 | inconclusive: 3.55 µM [inhibitor, single point] |  | 
25 | COc1ccc(-c2nc3cc(C)ccc3cc2CN2CCN(C)C(=O)C2)cc1OC | active: 7.94 µM |  | 
26 | CC(=O)N1CCC(c2nc(-c3nnn4c3COC(c3ccc(Cl)cc3)C4)no2)CC1 (configuration not stated) | inconclusive: 17.8 µM [inhibitor, single point] |  | 
27 | CC(=O)NCC(=O)NC1CC(C)(C)Cc2nc(N(C)Cc3ccccc3)ncc21 (configuration not stated) | inconclusive: 17.8 µM [inhibitor, single point] |  | 
28 | COc1ccc(C(=O)N2CCc3nc(C(C)C)nc(-c4ccc(OC)cc4)c3C2)cc1 | inconclusive: 12.6 µM [inhibitor, single point] |  | 
29 | O=C1c2cccn2CC(CNS(=O)(=O)c2ccc(F)cc2)N1Cc1ccccc1 (configuration not stated) | inconclusive: 11.2 µM [inhibitor, single point] |  | 
30 | Cc1cc(OCC(=O)N(Cc2ccc(N(C)C)cc2)C2CCS(=O)(=O)C2)cc(C)c1Cl (configuration not stated) | inconclusive: 17.8 µM [inhibitor, single point] |  | 
31 | O=[S+]([O-])(NCC1CN(Cc2ccncc2Cl)CC12CN(c1ccccc1)C2)c1ccccc1 (configuration not stated) |  |  | inactive: -20.3%
32 | CCC1=Nc2cc(C(=O)NCc3ccc(C)cc3)ccc2Sc2ccc(C)cc21 | inconclusive: 17.8 µM [inhibitor, single point] |  | 
33 | C[S+](=O)([O-])c1cccc(-c2cnc3[nH]cc(CC(N)=O)c3c2)c1 | inconclusive: 5.01 µM [inhibitor, single point] |  | 
34 | Cc1ccc(C2Cn3nnc(-c4noc(COc5cccc(C)c5)n4)c3CO2)cc1 (configuration not stated) | inconclusive: 7.08 µM [inhibitor, partial curve, poor fit] |  | 
35 | COC(=O)c1ccc(OC)c(Cn2c(=O)n(-c3cccc(Cl)c3)c(=O)c3c4c(sc32)CN(C(C)=O)CC4)c1 | inconclusive: 17.8 µM [inhibitor, single point] |  | 
36 | COCCCn1c(SCC(=O)Nc2ccccc2OC)nc2c(sc3ccccc32)c1=O | inconclusive: 17.8 µM [inhibitor, single point] |  | 
37 | CNC(=O)[C@@H]1C[C@H](Oc2cccnc2)CN1C(=O)c1n[nH]c2ccccc12 |  |  | inactive: -18.9%
38 | O=C(O)c1ccc(CC2CCN(Cc3cnc(-c4ccco4)nc3)C2)cc1 (configuration not stated) |  |  | inactive: -3.09%
39 | Cn1cccc1C(=O)C(=O)N1CCC(O)(CN2CCOCC2)C(C)(C)C1 (configuration not stated) |  |  | inactive: 13.2%
40 | CC(C)OCCCNc1ncnc2c1CN(c1ccc(Cl)cc1)C(=O)CN2C |  |  | inactive: -20.5%
41 | CC(=O)NCC(=O)N1Cc2ccccc2CC2(CCN(CC3CCCC3)C2)C1 (configuration not stated) | inconclusive: 7.94 µM [inhibitor, partial curve, poor fit] |  | 
42 | Cc1cc(C)c2oc(-c3ccc(C)c(NC(=O)/C=C/c4ccco4)c3)nc2c1 | inconclusive: 20 µM [inhibitor, single point] |  | 
43 | CC1(C)C(=O)N(CCOc2ccccc2)[C@H]2CN(Cc3c[nH]c4ccccc34)C[C@H]2[S+]1(=O)[O-] | inconclusive: 11.2 µM [inhibitor, single point] |  | 
44 | COc1ccccc1N1CCN(C(=O)CCS(=O)(=O)c2cc(Br)cc3c2N(C(C)=O)CC3)CC1 |  | inactive | 
45 | CCC(COC)NC(=O)c1c(C)noc1-c1ccc(C(C)(C)C)cc1 (configuration not stated) | inconclusive: 3.55 µM [inhibitor, partial curve, poor fit] |  | 
46 | CC(C)NC[C@H]1O[C@@H](CO)[C@@H](O)[C@H]1N1CCOCC1 |  |  | inactive: 10.2% [at 44.1 µM]

Row | SMILES | Potency | outcome | activity, negative = inhibition
47 | O=C(NCc1ccccc1)c1csc(N2CCN(c3ccc(Cl)cc3)CC2)n1 | inconclusive: 17.8 µM [inhibitor, single point] |  | 
48 | Cc1cc(C)cc(OCC(=O)c2ccc3c(c2)N(CC(=O)NCc2ccccc2)C(=O)CO3)c1 |  | inactive | 
49 | CSCCC(=O)N1CCCC(CCc2ccccc2F)C1 (configuration not stated) |  |  | inactive: -8.91%
50 | c1cncc(CN2CCC[C@H]2c2nc(-c3ccc(-n4ccnc4)nc3)no2)c1 | active: 8.91 µM |  | 
51 | O=C(CCC[C@H]1NC[C@@H]2C[C@H]1CN(Cc1ccccc1)C2)Nc1ccc2c(c1)OCCO2 | inconclusive: 17.8 µM [inhibitor, single point] |  | 
52 | O=C(O)CCC(=O)NC1CC2(CCN(Cc3ccncc3)CC2)c2ccccc21 (configuration not stated) |  |  | inactive: 38.4%
53 | COc1cccc(-c2cn3c(n2)N(C(=O)c2ccoc2)CCC3)c1 | inconclusive: 7.94 µM [inhibitor, partial curve, poor fit] |  | 
54 | CC1=C[C@@H](CNCCN(C)C)[C@H](C(C)C)C[C@H]1Cc1nnc(C(C)(C)C)o1 | inconclusive: 0.501 µM [inhibitor, full curve, poor fit] |  | 
55 | CN1c2cc(C(=O)NCc3ccc(F)cc3)ccc2C(=O)N2CCCCCC21 (configuration not stated) | inconclusive: 0.631 µM [inhibitor, full curve, poor fit] |  | 
56 | Cc1cccc(NC(=O)N2CCn3nnc(CCC(=O)NC4CC4)c3C2)c1 |  |  | inactive: -25%
57 | C#CCN(C)C(=O)[C@@H]1CCCN1[C@H](CC(C)C)C(=O)NC |  |  | inactive: -24.9% [at 44.1 µM]
58 | CCS(=O)(=O)c1c(Nc2cc(C)ccc2C)sc(C(=O)c2ccccc2)c1N |  |  | inactive: -21.4%
59 | CC1=C(C(=O)Nc2ccccc2)C(c2cc(Br)ccc2F)n2ncc(C(=O)Nc3ccccc3)c2N1 (configuration not stated) | active: 1.12 µM |  | 
60 | O=C(c1ccnnc1)N1C[C@@H](COCC2CC2)[C@H](c2ccccn2)C1 |  |  | inactive: 20.1%
61 | Cc1nc(C(=O)Nc2nn(Cc3ccccc3)c3cc(OC(C)C)ccc23)c(C)o1 | inconclusive: 3.98 µM [inhibitor, single point] |  | 
62 | C=CCOc1cccc(-c2nc(C(=O)N(C)Cc3ccco3)cs2)c1 | inconclusive: 3.98 µM [inhibitor, single point] |  | 
63 | CN(C)C(=O)C1CN(C(=O)C2CCCCC2)CC12CCOCC2 (configuration not stated) |  |  | inactive: 4.75%
64 | CCn1nc(CC(C)C)cc1C(=O)N1C[C@@H](NC(C)=O)[C@H](C(C)C)C1 |  |  | inactive: -2.78%
65 | CC(C)c1ccc(N2C(=O)N(Cc3ccccc3Cl)c3ccccc3S2(=O)=O)cc1 | inconclusive: 12.6 µM [inhibitor, single point] |  | 
66 | Cc1ccc(CN2CCC3(CC2)C(C(=O)O)CC(=O)N3C)o1 (configuration not stated) |  |  | inactive: -6.79%
67 | CCN(Cc1ccccc1)S(=O)(=O)c1ccc(F)c(C(=O)Nc2cc(C(F)(F)F)ccc2Cl)c1 | inconclusive: 17.8 µM [inhibitor, single point] |  | 
